Assay [1] addresses T1, cynomolgus SIRP-α D1 domain (cyno2) (cynomolgus monkey, UniProt Q5TFQ8 30-148 (human entry), limits assumed).
T1 chain: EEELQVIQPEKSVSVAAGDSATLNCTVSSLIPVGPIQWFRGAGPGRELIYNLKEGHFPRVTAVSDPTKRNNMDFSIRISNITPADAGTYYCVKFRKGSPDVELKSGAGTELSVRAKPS
Briefly: SPR, Langmuir fit. The method in brief:
(§1)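 scFv-Fc antibody clones were captured from pre-filtered culture media onto anti-human IgG Fc, amine-coupled at about 4000 RU on a GLC chip in a ProteOn XPR36 instrument. SIRP analytes were passed over in PBS pH 7.4 with 0.01% Tween-20 at 25° C, and responses were double-referenced against interspot and buffer-blank signals. Curves were fitted to a 1:1 Langmuir model. Dissociation rate constants (koff) were taken from those fits.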

Assay [2] addresses T2, human SIRPβ isoform 1 (human, UniProt O00241 30-148).
T2 construct: also called SIRPb; sirpb1
Description: SPR, Langmuir fit. In outline: as §1

Assay [3] has as its target T3, human SIRP-α v2 D1 domain (human).
T3 construct: also called human v2
Briefly: SPR, Langmuir fit. The method in brief:
as §1

The target in assay [4] is T4, human SIRP-α v1 D1 domain (human, UniProt P78324 31-149).
T4 construct: also called human v1
Briefly: SPR, Langmuir fit. In outline:
as §1

Assay [5] has as its target T5, human SIRPγ isoform 1 (human, UniProt Q9P1W8 29-147).
T5 construct: also called SIRPg; sirpg
Description: SPR, Langmuir fit. In outline: as §1

Assay [6] addresses T6, cynomolgus SIRP-α D1 domain (cyno1) (cynomolgus monkey, UniProt Q5TFQ8 30-148 (human entry), limits assumed).
T6 chain: T1 chain with D19E, V27A, S28T, A42V, N51H, L52Q, A62P
Briefly: SPR, Langmuir fit. The method in brief: as §1

Assay [7] addresses T7, C57BL/6 mouse SIRP-α D1 domain (mouse (C57BL/6 strain), UniProt P97797 32-148).
T7 sequence: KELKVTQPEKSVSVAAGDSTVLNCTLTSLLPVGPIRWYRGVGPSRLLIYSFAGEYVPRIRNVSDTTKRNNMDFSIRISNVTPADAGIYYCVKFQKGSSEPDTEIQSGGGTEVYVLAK
Briefly: SPR. In outline:
as §1

For assay [8], the target named is T8, mouse 129 SIRP-α D1 domain (mouse (129 strain), UniProt P97797 32-150).
T8 construct: also called m129
T8 chain: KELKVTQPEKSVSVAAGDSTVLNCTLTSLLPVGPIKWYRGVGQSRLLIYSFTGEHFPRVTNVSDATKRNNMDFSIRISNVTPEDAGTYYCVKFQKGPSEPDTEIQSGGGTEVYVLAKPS
Briefly: SPR. In outline: as §1

Assay [9] has as its target T9, human SIRP-α v1 D1 domain (human, UniProt P78324 31-149).
T9 construct: also called human v1; human α v1
Description: SPR, captured scFv-Fc, 100 nM analyte. As for the experimental part: (§2) Binding of the antibody clones to various SIRP proteins was determined using surface plasmon resonance (SPR) detection on a ProteOn XPR36 instrument (Bio-Rad, Hercules, Calif.) using phosphate buffered saline (PBS, pH 7.4) supplemented with 0.01% Tween-20 (PBST) as running buffer. The pre-filtered media containing the secreted antibodies was used directly for the assay. First, anti-Human IgG Fc (BR-1008-39, GE Healthcare) was amine-coupled onto a GLC sensor chip to generate the capture surfaces for the antibodies. About 4000 RU per flow cell of immobilized anti-human IgG Fc is achieved. Each clone is screened using the same method as follows.
(§3) (1) ‥5-10 uL of pre-filtered media in 10 mM sodium acetate buffer (pH4.5) was injected for 2 mins at 30 ul/min;
(§4) The koff rates of binding of each clone to each SIRP analyte were determined using SPR (Table C). The SPR screening conditions have been described herein, and the Koff values were determined using Langmuir kinetic fittings. The CD47 blocking properties (block, non-block, kick-off) are described in the last column of the Table C. Each antibody is identified according to its corresponding SEQ ID NO. SIRP analyte sequences are as follows: CV1-3, SEQ ID NO:18; v1, SEQ ID NO:5; v2, SEQ ID NO:6; cyno1, SEQ ID NO:11; cyno2, SEQ ID NO:12; m129, SEQ ID NO:7; NOD, SEQ ID NO: 8; BL6, SEQ ID NO:9; sirpb1, SEQ ID NO:13; sirpg, SEQ ID NO:15.

In assay [10] the target is T10, high affinity SIRP-α D1 variant CV1-3 (human).
T10 chain: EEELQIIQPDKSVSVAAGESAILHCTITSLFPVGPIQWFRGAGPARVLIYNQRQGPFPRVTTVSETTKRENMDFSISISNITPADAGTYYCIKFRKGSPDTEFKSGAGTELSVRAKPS
Briefly: SPR, captured scFv-Fc, 100 nM analyte. The procedure:
as §2, §3, §4

Assay [11] deals with T11, human SIRPγ isoform 1 (human, UniProt Q9P1W8 29-147).
T11 construct: also called sirpg; sirp-g
Description: SPR, captured scFv-Fc, 100 nM analyte. The procedure: as §2, §3, §4

The target in assay [12] is T12, cynomolgus SIRP-α D1 domain (SEQ ID NO:12) (cynomolgus, UniProt Q5TFQ8 30-148 (human entry), limits assumed).
T12 construct: also called cyno2; Cyno2
T12 chain: T1 chain
Briefly: SPR, captured scFv-Fc, 100 nM analyte. The procedure:
as §2, §3, §4

Assay [13] has as its target T13, human SIRPβ isoform 1 (human, UniProt O00241 30-148).
T13 construct: also called sirpb1; Sirpb1
Briefly: SPR, captured scFv-Fc, 100 nM analyte. As for the experimental part: as §2, §3, §4

The target in assay [14] is T14, human SIRP-α v2 D1 domain (human).
T14 construct: also called human v2; human α v2
Briefly: SPR, captured scFv-Fc, 100 nM analyte. As for the experimental part:
as §2, §3, §4

Assay [15] has as its target T15, cynomolgus SIRP-α D1 domain (SEQ ID NO:11) (cynomolgus, UniProt Q5TFQ8 30-148 (human entry), limits assumed).
T15 construct: also called cyno1
T15 chain: T1 chain with D19E, V27A, S28T, A42V, N51H, L52Q, A62P
Description: SPR, captured scFv-Fc, 100 nM analyte. As for the experimental part:
as §2, §3, §4

Assay [16] deals with T16, C57BL/6 mouse SIRP-α D1 domain (mouse (C57BL/6 strain), UniProt P97797 32-148).
T16 sequence: T7 sequence
Description: SPR, captured scFv-Fc. The method in brief: as §1

In assay [17] the target is T17, mouse 129 SIRP-α D1 domain (mouse (129 strain), UniProt P97797 32-150).
T17 construct: also called m129
T17 chain: T8 chain
Description: SPR, captured scFv-Fc. In outline: as §1

In assay [18] the target is T18, high affinity SIRP-α D1 variant CV1-3.
T18 chain: T10 chain
Briefly: SPR, Langmuir fit. The method in brief:
as §1

This note sets out measurements from patent US20210363269A1 (ALX ONCOLOGY, published 2021).

Numbering of substitutions follows the chain as printed.

human SIRPβ isoform 1, sequence (O00241 30-148 limits assumed): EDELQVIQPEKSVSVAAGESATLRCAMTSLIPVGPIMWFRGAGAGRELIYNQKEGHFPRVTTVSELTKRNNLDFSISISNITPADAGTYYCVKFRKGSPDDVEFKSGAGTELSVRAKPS
human SIRPγ isoform 1, sequence (Q9P1W8 29-147 limits assumed): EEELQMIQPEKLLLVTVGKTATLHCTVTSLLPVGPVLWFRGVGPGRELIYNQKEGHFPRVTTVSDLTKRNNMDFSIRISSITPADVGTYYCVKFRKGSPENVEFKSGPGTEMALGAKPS

B1: S121 (scFv)
scFv: EIVLTQSPATLSVSPGERATFSCRASQNVKNDLAWYQQRPGQAPRLLIYAARIRETGIPERFSGSGSGTEFTLTITSLQSEDFAVYYCQQYYDWPPFTFGGGTKVEIKGQSSRSSGGGGSSGGGGSDVQLVESGGGVVQPGGSLRLSCAASGFSFSNFAMTWVRQAPGEGLEWVSTIGSGDTYYADSVKGRFTISRDNSKNTLYLQMNSLRAEDTAVYYCAKDSTVSWSGDFFDYWGLGTLVTVSSSL[letters of human IgG1 Fc with C220S (EU numbers) and a few adjoining residues left out]
notes: scFv-Fc: VL-linker-VH fused to human IgG1 Fc
As for B1, the dissociation rate constant (koff) turned out to be 0.000319 s⁻¹ in assay [1]; 0.000564 s⁻¹ with human SIRPβ isoform 1 [2]; 0.000112 s⁻¹ in assay [3]; 0.000479 s⁻¹ in assay [4]; 0.000482 s⁻¹ in the assay with human SIRPγ isoform 1 [5]; 0.000302 s⁻¹ in assay [6]. Also, the binding result in assay [7] and in [8] was “no binding (tested: Koff > 5 × 10^3 (legend))” in each case.

B2: S120 scFv-Fc (scFv)
scFv: EIVLTQSPATLSVSPGERATFSCRASQNVKNDLAWYQQRPGQAPRLLIYAARIRETGIPERFSGSGSGTEFTLTITSLQSEDFAVYYCQQYYDWPPFTFGGGTKVEIKGQSSRSSGGGGSSGGGGSDVQLVESGGGVVQPGGSLRLSCAASGFSFSNFAMTWVRQAPGEGLEWVSTIGSGDTYYADSVKGRFTISRDNSKNTLYLQMNSLRAEDTAVYYCAKDSTVSWSGDFFDYWGLGTRVTVSSSL[letters of human IgG1 Fc with C220S (EU numbers) and a few adjoining residues left out]
As for B2, the dissociation rate constant (koff) is 0.000404 s⁻¹ in assay [9]; 0.000626 s⁻¹ in [10]; 0.000393 s⁻¹ with human SIRPγ isoform 1 [11]; 0.000314 s⁻¹ in assay [12]; 0.000425 s⁻¹ with human SIRPβ isoform 1 [13]; 0.000149 s⁻¹ in [14]. Besides, the dissociation rate constant (koff) in assay [15] was 0.000236 s⁻¹. Also, the binding result in assay [16] and in [17] was “no binding (tested: 100 nM)” in each case.

B3: S122 scFv-Fc (scFv)
scFv: EIVLTQSPATLSVSPGERATFSCRASQNVKNDLAWYQQRPGQAPRLLIYAARIRETGIPERFSGSGSGTEFTLTITSLQSEDFAVYYCQQYYDWPPFTFGGGTKVEIKGQSSRSSGGGGSSGGGGSDVQLVESGGGVVRPGESLRLSCAASGFRFSNFAMTWVRQAPGEGLEWVSTIGSGDTYYADSVKGRFTISRDNSKNTLYLQMNSLRAEDTAVYYCAKDSTVSWSGDFFDYWGLGTLVTVSSSL[letters of human IgG1 Fc with C220S (EU numbers) and a few adjoining residues left out]
Turning to B3, the dissociation rate constant (koff) is 0.000498 s⁻¹ in assay [9]; 0.000663 s⁻¹ in assay [10]; 0.000361 s⁻¹ with human SIRPγ isoform 1 [11]; 0.000327 s⁻¹ in [12]; 0.000352 s⁻¹ with human SIRPβ isoform 1 [13]; 0.000226 s⁻¹ in assay [14]. Further, the koff in assay [15] was found to be 0.000266 s⁻¹. The binding result in assay [16] and in assay [17] was “no binding (tested: 100 nM)” each time.

B4: S119 (scFv)
scFv: EIVLTQSPATLSVSPGERATFSCRASQNVKNDLAWYQQRPGQAPRLLIYAARIRETGIPERFSGSGSGTEFTLTITSLQSEDFAVYYCQQYYDWPPFTFGGGTKVEIKGQSSRSSGGGGSSGGGGSDVQLLESGGGVVQPGGSLRLSCAASGFSFSNFAMTWVRQAPGEGLEWVSTIGSGDTYYADSVKGRFTISRDNSKNTLYLQMNSLRAEDTAVYYCAKDSTVSWSGDFFDYWGLGTLVTVSSSL[letters of human IgG1 Fc with C220S T223P (EU numbers) and a few adjoining residues left out]
Turning to B4, the koff amounted to 0.00031 s⁻¹ in [1]; 0.000428 s⁻¹ in the assay with human SIRPβ isoform 1 [2]; 0.000148 s⁻¹ in assay [3]; 0.000565 s⁻¹ in assay [18]; 0.000415 s⁻¹ in assay [4]; 0.000395 s⁻¹ with human SIRPγ isoform 1 [5]. The same molecule showed an off-rate constant (koff) in assay [6] of 0.000234 s⁻¹. Moreover, the binding result in [7] and in assay [8] was “no binding (tested: Koff > 5 × 10^3 (legend))” throughout.

B5: S120 (scFv)
scFv: EIVLTQSPATLSVSPGERATFSCRASQNVKNDLAWYQQRPGQAPRLLIYAARIRETGIPERFSGSGSGTEFTLTITSLQSEDFAVYYCQQYYDWPPFTFGGGTKVEIKGQSSRSSGGGGSSGGGGSDVQLVESGGGVVQPGGSLRLSCAASGFSFSNFAMTWVRQAPGEGLEWVSTIGSGDTYYADSVKGRFTISRDNSKNTLYLQMNSLRAEDTAVYYCAKDSTVSWSGDFFDYWGLGTRVTVSSSL[letters of human IgG1 Fc with C220S (EU numbers) and a few adjoining residues left out]
notes: also called clone 120
In the case of B5, the koff in assay [1] came to 0.000314 s⁻¹; with human SIRPβ isoform 1 [2] it was 0.000425 s⁻¹; in assay [3], 0.000149 s⁻¹; in assay [18], 0.000626 s⁻¹; in assay [4], 0.000404 s⁻¹; with human SIRPγ isoform 1 [5] it was 0.000393 s⁻¹. In [6], this molecule had a dissociation rate constant (koff) of 0.000236 s⁻¹. Further, the binding result in [7] and in assay [8] was “no binding (tested: Koff > 5 × 10^3 (legend))” each time.

B6: S119 scFv-Fc (scFv)
scFv: EIVLTQSPATLSVSPGERATFSCRASQNVKNDLAWYQQRPGQAPRLLIYAARIRETGIPERFSGSGSGTEFTLTITSLQSEDFAVYYCQQYYDWPPFTFGGGTKVEIKGQSSRSSGGGGSSGGGGSDVQLLESGGGVVQPGGSLRLSCAASGFSFSNFAMTWVRQAPGEGLEWVSTIGSGDTYYADSVKGRFTISRDNSKNTLYLQMNSLRAEDTAVYYCAKDSTVSWSGDFFDYWGLGTLVTVSSSL[letters of human IgG1 Fc with C220S T223P (EU numbers) and a few adjoining residues left out]
As to B6, the koff in assay [9] worked out at 0.000415 s⁻¹; in assay [10], 0.000565 s⁻¹; with human SIRPγ isoform 1 [11], 0.000395 s⁻¹; in [12] it was 0.00031 s⁻¹; in the assay with human SIRPβ isoform 1 [13] it was 0.000428 s⁻¹; in [14] it was 0.000148 s⁻¹. The off-rate (koff) in assay [15] was found to be 0.000234 s⁻¹. Besides, the binding result in assay [16] and in assay [17] was “no binding (tested: 100 nM)” throughout.
